# Results taken from PubChem BioAssay AID588342 (National Center for Advancing Translational Sciences (NCATS), 2011).
# Screen size: about 360,000 compounds; about 25,000 (6.9%) were called active. Inconclusive means that the source gave no clear call. Such entries were picked first, then a sample of the others. Calls come from the whole dose curve; as a rule, active = well fitted inhibition curve with a large enough effect; inconclusive = small, poorly fitted or top-dose-only effect; inactive = flat fitted curve, though single readings scatter. A potency beside an inconclusive call is a rough fit, not a confirmed value.
# Biological target: Luciferin 4-monooxygenase (Photinus pyralis) (UniProt P08659)
# Assay: qHTS profiling assay for firefly luciferase inhibitor/activator using purifed enzyme and Km concentrations of substrates (counterscreen for miR-21 project); note: nearly all actives have a fitted effect of over 55% in size;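 for activity change, negative = inhibition: plate controls were vehicle for no effect and reference inhibitor for full effect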
# Settings: purified FLuc, luminescence inhibition; series mostly up to 57.5 µM; activity change, negative = inhibition: at the top concentration
# Procedure, shortened: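 Biochemical qHTS of compounds, final roughly 60 µM downward over six points, against 10 nM purified firefly luciferase using Km concentrations of substrates (10 uM D-luciferin, 10 uM ATP) in Tris acetate pH 7.5 buffer; luminescence output.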
# Potency is the fitted concentration of half-maximal effect; tags give direction and shape of the fitted curve.
# Sequence of UniProt P08659 (P08659 whole entry, looked up): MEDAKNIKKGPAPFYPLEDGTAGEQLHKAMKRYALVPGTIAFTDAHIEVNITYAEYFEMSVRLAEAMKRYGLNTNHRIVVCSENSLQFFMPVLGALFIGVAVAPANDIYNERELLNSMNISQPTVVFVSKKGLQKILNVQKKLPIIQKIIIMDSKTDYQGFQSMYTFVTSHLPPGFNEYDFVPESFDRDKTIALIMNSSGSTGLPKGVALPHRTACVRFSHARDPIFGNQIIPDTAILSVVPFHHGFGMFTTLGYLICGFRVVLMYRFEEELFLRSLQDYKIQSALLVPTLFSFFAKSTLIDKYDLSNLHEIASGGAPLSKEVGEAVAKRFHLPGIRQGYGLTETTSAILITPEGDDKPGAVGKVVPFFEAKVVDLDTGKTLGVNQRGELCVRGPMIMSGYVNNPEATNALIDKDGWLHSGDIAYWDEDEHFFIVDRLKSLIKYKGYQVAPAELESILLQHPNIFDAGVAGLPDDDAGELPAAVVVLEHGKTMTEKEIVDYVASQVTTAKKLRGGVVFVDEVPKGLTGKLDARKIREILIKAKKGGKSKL
SMILES,Potency,"activity change, negative = inhibition"
CCCC(=O)NC(=S)Nc1ccccc1OC,"inconclusive: 23.9 µM [inhibitor, partial curve, poor fit]",–
COCC1CCN(C(=O)c2ccc3oc(CCCc4ccccc4)nc3c2)C1 (stereo not drawn),"inconclusive: 23.9 µM [inhibitor, single point]",–
Cc1ccc2c(c1)C(Cc1ccccc1F)C(=O)N2 (stereo not drawn),–,inactive: -10.4%
CCOc1ccc(C(=O)OCC(=O)N2CCCC2)cc1,–,inactive: -16.6%
COc1ccc(N2C(=O)CC(Sc3n[nH]c(-c4ccc(C)cc4)n3)C2=O)cc1 (stereo not drawn),"inconclusive: 23.9 µM [inhibitor, single point]",–
CC1CCC(NC(=O)c2ccc3c(c2)OCO3)CC1 (stereo not drawn),active: 2.69 µM,–
COc1ccccc1N1CCN(C(=O)CSc2ccccc2)CC1,"inconclusive: 6.01 µM [inhibitor, partial curve, poor fit]",–
COc1ccc2nc(Nc3nc(CSc4nc5ccccc5[nH]4)cc(=O)[nH]3)nc(C)c2c1,"inconclusive: 6.75 µM [inhibitor, partial curve, poor fit]",–
COc1cc(C(C)=O)ccc1OCCCOc1cccc2cccnc12,"inconclusive: 37.9 µM [inhibitor, partial curve, poor fit]",–
COc1ccc(CNC(=O)CSc2nc3cccnc3s2)cc1,"inconclusive: 37.9 µM [inhibitor, partial curve, poor fit]",–
Cc1cccc(NC(=O)c2cnc3scc(C)n3c2=O)c1,active: 8.49 µM,–
O=C(NCc1ccc2c(c1)OCO2)c1cc(-c2ccncc2)nc2ccccc12,"inconclusive: 37.9 µM [inhibitor, partial curve, poor fit]",–
COc1ccc(-c2cn[nH]c2-c2ccc(OCc3ccccc3)cc2O)cc1OC,"inconclusive: 37.9 µM [inhibitor, partial curve, poor fit]",–
CCOC(=O)C1CCN(C(=O)Nc2ccc(Cl)cc2)CC1,"inconclusive: 37.9 µM [inhibitor, partial curve, poor fit]",–
Brc1cc2c(cc1-c1nc3ccccc3s1)OCO2,active: 12 µM,–
NS(=O)(=O)c1cc(C(=O)OCC(=O)N2CCc3ccccc3C2)ccc1Cl,"inconclusive: 12 µM [inhibitor, partial curve, poor fit]",–
CCOC(=O)c1ccc2nc(C)c(CCC(C)=O)c(Cl)c2c1,"inconclusive: 30.1 µM [inhibitor, partial curve, poor fit]",–
CCn1cc2nc(SCC(=O)Nc3ccc(OC)c(OC)c3)n(Cc3ccc(Cl)cc3)c(=O)c2n1,"inconclusive: 37.9 µM [inhibitor, partial curve, poor fit]",–
